{"source": "PubChem BioAssay AID1347073", "about": "(National Center for Advancing Translational Sciences (NCATS), 2019)", "note": "Out of some 45,000 compounds screened, about 200 (0.44%) were called active. The inconclusive results got no clear call from the source; some entries with a clear call stand among them for comparison. The call rests on the fitted dose curve; in most records, active means well fitted activation curve with a large enough effect; inconclusive means small, poorly fitted or top-dose-only effect; inactive means no such curve, though single readings can be large or run the other way. Potencies of inconclusive entries are doubtful fits and often do not repeat. Potency means the concentration at half of the fitted maximal effect; tags describe the fitted curve by direction and shape.", "data": [{"experiment": "qHTS of TDP-43 Inhibitors: NCGC Sytravon Library Screen; further: nearly all actives have a fitted effect of over 55% in size; on growth rescue (activation): 0% is about no effect", "settings": "yeast TDP-43 toxicity rescue, BacTiter-Glo growth, 24 h; growth rescue (activation): at 46.1 µM (top of the series)", "procedure,_shortened": "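TDP-43-expressing yeast, pregrown in raffinose, seeded at OD600 0.02 in galactose medium with compound for 24 hr at 30 deg C. Growth read by BacTiter-Glo luminescence, so rescue of toxicity appears as activation.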", "values": [{"smiles": "CN(c1nc2ccccc2nc1Cl)S(=O)(=O)c1ccccc1", "Potency": "active: 12.6 µM"}, {"smiles": "Cc1nc2sc(C(N)=O)c(N)c2c2c1CCCC2", "Potency": "inconclusive: 6.31 µM [activator, partial curve]"}, {"smiles": "COc1ccc(C2CC(c3ccccc3)=NN2C(=O)CSc2ncccn2)cc1", "note": "(centres undefined)", "Potency": "inconclusive: 11.2 µM [activator, partial curve, poor fit]"}, {"smiles": "Cc1ccc(CSCC(=O)N2CCN(c3ccccc3)CC2)cc1", "Potency": "inconclusive: 22.4 µM [activator, partial curve, poor fit]"}, {"smiles": "Cc1cc2nc(-c3ccc4c(c3)CCC4)ccn2n1", "Potency": "inconclusive: 12.6 µM [activator, partial curve, poor fit]"}, {"smiles": "Cc1cccc(S(=O)(=O)NC(=O)C2(C)CCN2C(=O)C2(c3ccc(Cl)cc3)CCC2)c1", "note": "(centres undefined)", "Potency": "inconclusive: 22.4 µM [activator, single point]"}, {"smiles": "Cc1sc2ncnc(N(C)Cc3ccco3)c2c1C", "Potency": "inconclusive: 11.2 µM [activator, partial curve, poor fit]"}, {"smiles": "COc1ccc2c(CC(=O)NC3CCCc4ccccc43)coc2c1", "note": "(centres undefined)", "Potency": "inconclusive: 12.6 µM [activator, partial curve, poor fit]"}, {"smiles": "Clc1ccccc1-c1cnc2sc(NCc3ccc4c(c3)OCO4)nn12", "Potency": "active: 5.01 µM"}, {"smiles": "COc1ccc(C2CC(=O)C(C=NCCN3CCOCC3)=C(O)C2)cc1", "note": "(centres undefined)", "Potency": "inconclusive: 7.08 µM [activator, partial curve, poor fit]"}, {"smiles": "NS(=O)(=O)c1cccc(NC(=O)COC(=O)C2CCN(S(=O)(=O)c3cccs3)CC2)c1", "Potency": "inconclusive: 35.5 µM [activator, partial curve, poor fit]"}, {"smiles": "CC(C)(C)C(=O)NC(=S)NNC(=O)c1ccncc1", "Potency": "inconclusive: 35.5 µM [activator, single point]"}, {"smiles": "CCN(CC(=O)Nc1cc(Cl)ccc1C)c1ncnc2sc(C)c(C)c12", "Potency": "inconclusive: 17.8 µM [activator, single point]"}, {"smiles": "COC(=O)c1c(Cc2ccccc2Cl)c[nH]c1C", "Potency": "inconclusive: 15.8 µM [activator, partial curve, poor fit]"}, {"smiles": "Cc1ccc(N=C(NOC(=O)c2ccccc2)c2nonc2N)c(C)c1", "Potency": "inconclusive: 7.94 µM [activator, partial curve, poor fit]"}, {"smiles": "CCOC(=O)C(=NC1CCS(=O)(=O)C1)NNc1ccc(Br)cc1", "note": "(centres undefined)", "Potency": "inconclusive: 11.2 µM [activator, partial curve, poor fit]"}, {"smiles": "CCCSc1ncc(Cl)c(C(=O)Nc2c(C(=O)Nc3ccc(C)cc3)oc3ccccc23)n1", "Potency": "inactive"}, {"smiles": "O=C(Cc1ccc(Br)cc1)NC1CCCc2ccccc21", "note": "(centres undefined)", "Potency": "inconclusive: 7.94 µM [activator, partial curve, poor fit]"}, {"smiles": "COc1cc(SC)ccc1C(=O)NCC1CCCCC1", "Potency": "inconclusive: 11.2 µM [activator, partial curve]"}, {"smiles": "CCC(=O)Nc1cccc(-c2nnc(-c3ccccc3)o2)c1", "Potency": "inconclusive: 31.6 µM [activator, single point]"}, {"smiles": "O=C(CN1CCN(c2ccccc2)CC1)Nc1ccccc1Sc1ccccc1", "Potency": "inconclusive: 22.4 µM [activator, single point]"}, {"smiles": "O=C(Cn1nnc(-c2ccccc2Cl)n1)Nc1ccc(Br)cc1", "Potency": "inactive"}, {"smiles": "O=C(NCc1ccc(F)cc1)c1ccc(CNc2c(N3CCOCC3)c(=O)c2=O)cc1", "Potency": "inconclusive: 31.6 µM [activator, single point]"}, {"smiles": "Cc1ccccc1Cn1ccc(NC(=O)c2nn3cccnc3c2Cl)n1", "Potency": "inconclusive: 14.1 µM [activator, single point]"}, {"smiles": "CCCCN(CC)C(=O)c1ccc(-c2ccccc2)cc1", "Potency": "inconclusive: 7.08 µM [activator, partial curve]"}, {"smiles": "COc1ccc(-c2ccccc2)cc1NCc1ccccc1C", "Potency": "inconclusive: 35.5 µM [activator, partial curve, poor fit]"}, {"smiles": "S=c1[nH]nc(C(c2ccccc2)C2CCCCC2)o1", "note": "(centres undefined)", "Potency": "inconclusive: 25.1 µM [activator, single point]"}, {"smiles": "CC(C)CNc1ncnc2c1cnn2Cc1ccc(Cl)cc1", "Potency": "inconclusive: 35.5 µM [activator, single point]"}, {"smiles": "CCCCCCn1c(-c2cccs2)n[nH]c1=S", "Potency": "inconclusive: 17.8 µM [activator, partial curve, poor fit]"}, {"smiles": "Cc1cc2ccccn2c1C(=O)c1ccccc1Br", "Potency": "inconclusive: 14.1 µM [activator, partial curve, poor fit]"}, {"smiles": "Cc1ccc(NC(=S)NCCSc2ccc(Cl)cc2)c(C)c1", "Potency": "inconclusive: 11.2 µM [activator, partial curve, poor fit]"}, {"smiles": "COc1ccc(C/C(C)=N/NC(=S)Nc2ccc(Cl)cc2)cc1", "Potency": "inconclusive: 12.6 µM [activator, partial curve, poor fit]"}, {"smiles": "CC1=C(C(=O)Nc2ccc(C)cc2Cl)C2(CCCCC2)OC1=O", "Potency": "inconclusive: 11.2 µM [activator, partial curve, poor fit]"}, {"smiles": "O=C(c1cccs1)c1cn(CCOc2ccc(F)cc2)c2ccccc12", "Potency": "inactive"}, {"smiles": "CCSc1ncc(Cl)c(C(=O)N(Cc2ccc(C(C)(C)C)cc2)C2CCS(=O)(=O)C2)n1", "note": "(centres undefined)", "Potency": "inactive"}, {"smiles": "O=C(Nc1ccc(Cl)cc1)c1cccc(OC(=S)N2CCOCC2)c1", "Potency": "inconclusive: 17.8 µM [activator, partial curve, poor fit]"}, {"smiles": "CN(C(=S)Nc1ccc(Oc2ccccc2)cc1)C1CCCCC1", "Potency": "inconclusive: 14.1 µM [activator, single point]"}, {"smiles": "COc1ccc(OC(C)C(=O)NCCC2=CCCCC2)cc1", "note": "(centres undefined)", "Potency": "inconclusive: 14.1 µM [activator, partial curve, poor fit]"}, {"smiles": "Cc1ccc(S(=O)(=O)NC2CCCCC2)c2nsnc12", "Potency": "inconclusive: 22.4 µM [activator, single point]"}, {"smiles": "COc1ccccc1OCCNC(=O)c1cc(SC)ccc1Cl", "Potency": "inconclusive: 12.6 µM [activator, partial curve, poor fit]"}, {"smiles": "Cc1sc2ncnc(NCC(O)c3ccc([N+](=O)[O-])cc3)c2c1C", "note": "(centres undefined)", "Potency": "inconclusive: 8.91 µM [activator, partial curve, poor fit]"}, {"smiles": "Cn1c(C(=O)NCc2ccccc2Cl)cc2sc(Cl)cc21", "Potency": "inconclusive: 2.51 µM [activator, full curve, poor fit]"}, {"smiles": "Cc1noc(C)c1-c1ccc(C(=O)NCc2ccncc2)c2occc12", "Potency": "inactive"}, {"smiles": "C/C(=C\\c1ccccc1)C(=O)N1CCN(c2cccc(C(F)(F)F)c2)CC1", "Potency": "inconclusive: 15.8 µM [activator, partial curve, poor fit]"}, {"smiles": "CCCSc1nc2sc3c(c2c(=O)n1-c1ccc(C)cc1)CCCC3", "Potency": "inactive"}, {"smiles": "CCSc1nc2sc3c(c2c(=O)n1-c1ccc(OC)cc1)CCN(C)C3", "Potency": "inconclusive: 15.8 µM [activator, single point]"}, {"smiles": "O=C1C2C3CCC(C3)C2C(=O)N1CNc1ccccc1", "note": "(centres undefined)", "Potency": "inconclusive: 35.5 µM [activator, single point]"}, {"smiles": "NC(N)=N/N=C/c1cc([N+](=O)[O-])ccc1O", "Potency": "inconclusive: 14.1 µM [activator, partial curve, poor fit]"}, {"smiles": "Cc1ccc(C)c(C(O)c2ncc(-c3ccc(F)cc3)[nH]2)c1", "note": "(centres undefined)", "Potency": "inactive"}, {"smiles": "CC1CCN(c2c(NCC3CCC(C(=O)NCCC4=CCCCC4)CC3)c(=O)c2=O)CC1", "note": "(centres undefined)", "Potency": "inconclusive: 35.5 µM [activator, single point]"}, {"smiles": "O=C(NC(=S)Nc1ccccc1N1CCCCC1)c1ccco1", "Potency": "inconclusive: 28.2 µM [activator, single point]"}, {"smiles": "CCCSc1ncc(Cl)c(C(=O)NCc2ccc(C)cc2)n1", "Potency": "inactive"}, {"smiles": "CCc1ccc(S(=O)(=O)NCc2csc(C)n2)cc1", "Potency": "inactive"}, {"smiles": "O=C(NCC1CCCO1)C(c1cccs1)N(C(=O)c1ccc(CN2CCOCC2)o1)c1ccc(Cl)cc1", "note": "(centres undefined)", "Potency": "inactive"}, {"smiles": "Oc1ccc(/C=N/NC(=S)NCCN2CCOCC2)c(O)c1", "Potency": "inactive"}, {"smiles": "CCCc1cc(NCc2ccccn2)n2nc(C)c(-c3ccccc3)c2n1", "Potency": "inactive"}, {"smiles": "Cn1c(CNC(=O)c2ccco2)nnc1SCC(=O)c1ccc(F)cc1", "Potency": "inactive"}, {"smiles": "O=C(c1cccc(C(F)(F)F)c1)C1CCCN(C(=O)/C=C/c2cnc[nH]2)C1", "note": "(centres undefined)", "Potency": "inactive"}, {"smiles": "COc1ccc(CNC(=O)N2CCN(c3cccc(C)c3C)CC2)cc1OC", "Potency": "inconclusive: 31.6 µM [activator, single point]"}, {"smiles": "CCOC(=O)c1ccc(N2C(=O)CC(Sc3nnc(C)s3)C2=O)cc1", "note": "(centres undefined)", "Potency": "inconclusive: 35.5 µM [activator, single point]"}, {"smiles": "Cc1cc(=O)[nH]c(N/N=C/c2ccc(F)cc2)n1", "Potency": "inactive"}, {"smiles": "COc1nc(N2CCOCC2)nc(C)c1[N+](=O)[O-]", "growth rescue (activation)": "inconclusive: -30.4% [activator]"}, {"smiles": "CCc1nnc(NS(=O)(=O)c2ccc(N=CC3=C(O)CC(C)(C)CC3=O)cc2)s1", "Potency": "inactive"}, {"smiles": "Cc1ccc(NC(=O)N2CCc3cc(S(=O)(=O)N4CCC(C)CC4)ccc32)cc1F", "Potency": "inactive"}, {"smiles": "CCCSc1ncc(Cl)c(C(=O)NCc2ccc(OC)cc2)n1", "Potency": "inconclusive: 11.2 µM [activator, partial curve, poor fit]"}, {"smiles": "CCOc1ccc(N2CCc3c(C)nc(SC)nc32)cc1", "Potency": "inactive"}, {"smiles": "Cc1ccc(CC2(C)C(=O)Nc3ccc(OC(F)(F)F)cc32)cc1", "note": "(centres undefined)", "growth rescue (activation)": "inconclusive: 58.8% [activator]"}, {"smiles": "Brc1ccccc1/C=N/Nc1ccc2ccccc2n1", "Potency": "inconclusive: 14.1 µM [activator, partial curve]"}, {"smiles": "CN(C(=O)CN1C(=O)c2ccc([N+](=O)[O-])cc2C1=O)C1CCCCC1", "Potency": "inconclusive: 20 µM [activator, partial curve, poor fit]"}]}]}
